From PubChem BioAssay AID588855 (National Center for Advancing Translational Sciences (NCATS), 2011)
Values joined by “and” are separate entries in the source; they are usually repeats but may differ in a detail not shown here. Identical values can stand only once. Hit rate of the full screen: of about 410,000 compounds, about 5,000 (1.2%) were called active. Inconclusive means that the source gave no clear call. Such entries were picked first, then a sample of the others. Calls come from the whole dose curve; as a rule, active = well fitted inhibition curve with a large enough effect; inconclusive = small, poorly fitted or top-dose-only effect; inactive = no such curve, though single readings can be large or run the other way. Where the call is inconclusive, the potency comes from a doubtful curve fit.

Assay: qHTS for Inhibitors of TGF-b; note: nearly all actives have a fitted effect of over 65% in size
Conditions: HepG2 CAGA-GFP TGF-b/SMAD3 reporter, GFP fluorescence, 18 h, TGF-beta stimulated, 500 pg/mL final; series mostly up to 46.1 µM
How it was run: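 TGF-beta reporter screen: HEPG2 CAGA-GFP, 1% FBS, 500 pg/mL TGF-beta final, 18 h; per-cell GFP summed per well; curves fitted and categorized by class.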
Potency is the fitted concentration of half-maximal effect; tags give direction and shape of the fitted curve.

Structure (SMILES) | Potency
CCc1c(C)sc2c1CCN(C(=O)Nc1ccccc1C(F)(F)F)C2c1ccccc1 (stereo not given) | inconclusive: 35.5 µM [inhibitor, single point]
OCCN1CCN(c2nc(-c3ccccc3)c3cc(Cl)ccc3n2)CC1 | inconclusive: 15.8 µM [inhibitor, single point]
Cc1ccc(C(Nc2ccccn2)c2ccc3cccnc3c2O)cc1 (stereo not given) | inconclusive: 8.91 µM [inhibitor, partial curve, poor fit]
CC(NC(=S)NC1CCCCC1)c1ccc(C(C)(C)C)cc1 (stereo not given) | inconclusive: 11.2 µM [inhibitor, partial curve, poor fit]
CCc1ccc(NC(=S)N2CCC(NC(=O)C3CCCCC3)CC2)cc1 | inconclusive: 0.112 µM [inhibitor, full curve, poor fit]
Cc1cccc(COc2ccc(/C=C3/C(=O)N(C)C(=S)N3C)cc2)c1 | inactive
COc1ccc(N(Cc2cc3ccccc3[nH]c2=O)S(=O)(=O)c2ccccc2)cc1 | inconclusive: 25.1 µM [inhibitor, single point]
CC(C)(C)[C@@H]1CCC(=O)N(CC[C@H](Sc2ccccc2)c2ccccc2)CC1 | inconclusive: 35.5 µM [inhibitor, single point] and inconclusive: 22.4 µM [inhibitor, single point]
COc1cc(Cl)c(NS(=O)(=O)c2ccc3c(c2)CC(C)N3C(=O)C2CCC2)c(OC)c1 (stereo not given) | inconclusive: 25.1 µM [inhibitor, single point]
COc1ccccc1Nc1cc2cc(Br)ccc2c(=O)[nH]1 | inconclusive: 35.5 µM [inhibitor, single point]
COC(=O)C1C(O)C(C)C(O)C(C)(O)/C=C\C=C(/C)C(=O)Nc2c(C)c(OC(C)=O)c3c(c2O)C(=O)C(C)=C2OCOC(=C23)/C(C)=C/C(C)(O)C(O)C(C)C1O (stereo not given) | inconclusive: 35.5 µM [inhibitor, single point]
COc1ccc(CNCCCSc2ncccn2)cc1OC | inactive
C/C(=N\NC(=O)CN1CCN(Cc2ccccc2)CC1)c1cccs1 | inactive
Clc1ccc(-c2nc3cc(CN4CCCCC4)ccc3o2)cc1 | inactive
CCCCNCCCOc1cc(Cl)ccc1Cl | inconclusive: 1.58 µM [inhibitor, partial curve, poor fit]
COc1ccc(CCN2CC(=O)NC(=O)C2)cc1OC | inactive
O=C(COC(=O)c1ccc(Cl)c(S(=O)(=O)N2CCN(c3ccc(F)cc3)CC2)c1)Nc1cccc(Cl)c1 | inconclusive: 35.5 µM [inhibitor, partial curve, poor fit]
CC(=O)Oc1ccc(N(C(C)=O)S(=O)(=O)c2ccc(C)cc2C)c2ccccc12 | inconclusive: 35.5 µM [inhibitor, single point]
O=C(Nc1nc2ccccc2s1)C1c2ccccc2Oc2ccccc21 | inconclusive: 17.8 µM [inhibitor, single point]
COc1cccc(-c2nc(NCc3ccccc3)c3ccccc3n2)c1O | inconclusive: 10 µM [inhibitor, partial curve, poor fit]

Structure (SMILES) | Potency
O=C(NCc1ccc(F)cc1)C1CCCN(S(=O)(=O)c2ccc(Br)s2)C1 (stereo not given) | inactive
CCCCCC(=O)O[C@]1(C(C)=O)CC[C@H]2[C@@H]3CCC4=CC(=O)CC[C@]4(C)[C@H]3CC[C@@]21C | inconclusive: 8.91 µM [inhibitor, partial curve, poor fit]
CCN(CC)c1ccc(-c2nn3c(-c4n[nH]c5c4CCC5)nnc3s2)cc1 | inconclusive: 25.1 µM [inhibitor, single point]
C=CCOc1ccc(C(=O)c2ccccc2)c(OCC(=O)NC2(C#N)CCCC2)c1 | inactive
OCCNc1nc(Nc2cc(Cl)ccc2OC2CCCC2)nc(N2CCCC2)n1 | inconclusive: 35.5 µM [inhibitor, single point]
Cc1ccc(S(=O)(=O)Nc2ncccn2)cc1 | inactive
COc1ccc(-c2nc(CS(=O)CC(=O)NCc3ccc(F)cc3)c(C)o2)cc1OC (stereo not given) | inconclusive: 35.5 µM [inhibitor, single point]
CC(OC(=O)c1ccc(-c2ccc([N+](=O)[O-])cc2)o1)C(=O)NC(N)=O (stereo not given) | inconclusive: 6.31 µM [inhibitor, single point]
CC(=O)N(CCc1ccccc1)c1ccc2c(c1)C1CC2CCN1C(=O)OCc1ccccc1 (stereo not given) | inconclusive: 35.5 µM [inhibitor, single point]
COc1ccc(N2CCN(C(CNC(=O)CC(C)C)c3ccc4c(c3)OCO4)CC2)cc1 (stereo not given) | inconclusive: 35.5 µM [inhibitor, single point]
O=C(Nc1ccc(OC(F)F)cc1)c1nc(S(=O)(=O)Cc2ccccc2F)ncc1Cl | active: 12.6 µM
CN(Cc1ccccc1)C(=O)C1CCN(S(=O)(=O)c2cc([N+](=O)[O-])ccc2Cl)CC1 | inactive
CCc1cccc(CC)c1NC(=O)Cn1nnc2sc(-c3ccccc3)cc2c1=O | inactive
CN(C(=O)CSc1nnc(Nc2ccccc2)s1)c1c(N)n(Cc2ccccc2)c(=O)[nH]c1=O | inconclusive: 6.31 µM [inhibitor, single point]
O=C(Nc1ccc2c(c1)OCCO2)c1coc2ccccc2c1=O | inconclusive: 1.26 µM [inhibitor, full curve]
Cc1cccn2c(=O)c3cc(C#N)c(=O)n(-c4c(C)n(C)n(-c5ccccc5)c4=O)c3nc12 | inconclusive: 5.62 µM [inhibitor, single point]
CC(C)OC(=O)C(C(=O)C(F)(F)F)c1cc(NS(=O)(=O)c2ccc3ccccc3c2)c2ccccc2c1O (stereo not given) | inactive
Cn1c(SCc2ccc3c(c2)OCO3)nnc1-c1ccccc1 | inconclusive: 2.82 µM [inhibitor, partial curve]
O=c1/c(=C/c2ccc([N+](=O)[O-])cc2)sc2n1CCCN=2 | inconclusive: 35.5 µM [inhibitor, single point]
O=c1[nH]c2cc(C(F)(F)F)ccc2n1-c1cc(C(F)(F)F)ccc1O | inconclusive: 8.91 µM [inhibitor, partial curve, poor fit]
